From paper PMC9841431 (Nucleic Acids Research, 2022)

Tested on: M. tuberculosis H37Rv
Test: microbe, parasite or virus in culture
Type: cell-based
Conditions: Mycobacterium tuberculosis, read-out: MIC90 against replicating M. tuberculosis H37Rv and both sensitive and MDR clinical strains

## O=[N+]([O-])c1cc2c(ccc3c4cc([N+](=O)[O-])oc4ccc23)o1 [nNF-C3, 2,7-Dinitronaphtho[2,1-b:6,5-b']difuran]
  MIC90: 0.031 to 0.5 µg/mL (≈ 0.104 to 1.68 µM)

In brackets after ≈: the same amount, converted by molar mass.
